# Results published in PubChem BioAssay AID1346428 (National Center for Advancing Translational Sciences (NCATS), 2018).
# Values joined by “and” are separate entries in the source; they are usually repeats but may differ in a detail not shown here. Equal values may be shown once. The whole screen tested about 48,000 compounds, of which about 1,200 (2.5%) were called active. About 2% were inconclusive and are not listed.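 Rule for the calls: active = activation of at least 60% and not above a set upper limit (about 1 call in 100 departs from these limits); inconclusive = activation of 40% to 60%, or above that upper limit; inactive = activation under 40%.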 This is one part of the list.
# Biological target: Probable G-protein coupled receptor 32 (Homo sapiens) (UniProt O75388)
# UniProt O75388, sequence (O75388 whole entry, looked up): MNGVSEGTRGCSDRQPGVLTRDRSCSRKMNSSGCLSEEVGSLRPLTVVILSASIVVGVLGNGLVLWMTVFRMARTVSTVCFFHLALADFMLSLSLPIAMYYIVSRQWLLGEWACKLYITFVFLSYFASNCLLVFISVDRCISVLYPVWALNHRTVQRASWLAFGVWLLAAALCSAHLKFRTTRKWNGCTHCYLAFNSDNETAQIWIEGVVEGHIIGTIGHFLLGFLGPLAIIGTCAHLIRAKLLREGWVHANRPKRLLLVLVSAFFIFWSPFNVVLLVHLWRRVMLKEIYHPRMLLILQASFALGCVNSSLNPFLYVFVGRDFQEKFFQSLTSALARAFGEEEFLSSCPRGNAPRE
# Test: qHTS for Agonists of Human Resolvin D1 Receptor DRV1; note: 0% is about no effect
# Details: CHO-K1 GPR32 beta-arrestin PathHunter luminescence, 90 min; at 76.9 µM; hits give high values; zero percent set by DMSO-only wells
# In short: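 PathHunter beta-arrestin recruitment in CHO-K1 cells stably expressing ProLink-tagged GPR32. Cells were exposed to compound for 90 min at 37 C, then chemiluminescence was read after 1 h detection at ambient temperature; DMSO served as basal control.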
row,Structure (SMILES),activation
1,COc1ccccc1CNC(=O)c1c(O)nc2cc(C)ccn2c1=O,inactive: -3.68%
2,Cc1nc2ccc(S(=O)(=O)NC(C(=O)NCc3ccc(Cl)cc3)C(C)C)cc2s1 (stereo not drawn),inactive: 4.13%
3,NC(Cc1ccc(Cl)cc1)C(=O)O (stereo not drawn),inactive: 9.04% and inactive: 10.6%
4,CCc1ccc2occ(CC(=O)Nc3sc4c(c3C(=O)OC)CCC4)c2c1,inactive: -18.3%
5,O=C(C1CCN(c2nc3ccccc3[nH]2)CC1)N1CCN(c2cccc(Cl)c2)CC1,inactive: -4.15%
6,Cc1cc(C(C)(C)C)c(O)c(C)c1CC1=NCCN1,inactive: -0.696% and inactive: -15.3%
7,COc1cccc(N2C(=O)CSC23C(=O)N(CC(=O)NCc2ccc(C)cc2)c2ccccc23)c1 (stereo not drawn),inactive: -1.38%
8,CSC1=NC2(CCN(C(=O)NC3CCCCC3)CC2)N=C1c1ccc(C(C)(C)C)cc1,inactive: -11.2%
9,COc1cccc(CNCCSc2nnnn2C)c1OCc1ccc(Cl)cc1,active: 116%
10,CCCN(CCC)CCCNC(=O)c1cn(CC)c2ccc(S(=O)(=O)N3CCc4ccccc4C3)cc2c1=O,inactive: -5.93%
11,CCCCS(=N)(=O)CC[C@H](N)C(=O)O (stereo partly drawn),inactive: 5.06%
12,CCOC(=O)c1ccc2c(c1)N(CC(=O)Nc1ccc(CC)cc1)C(=O)c1ccccc1S2,inactive: -11.4%
13,Cc1ccc(Nc2c(-c3ccc(N4CCOCC4)cc3)nc3ncccn23)cc1C,inactive: -20.2%
14,COc1cc(NC(=O)Cn2cnc3sc(C)c(S(=O)(=O)N4CCN(C)CC4)c3c2=O)cc(OC)c1OC,inactive: -3.16%
15,CCc1ccc(Cn2nnc(C(=O)Nc3ccc(C)cc3)c2N)cc1,inactive: -0.999%
16,CC(C)c1ccc(NC(=O)C2CCCN(S(=O)(=O)c3ccc4[nH]c(=O)ccc4c3)C2)cc1 (stereo not drawn),inactive: -8.46%
17,CN(C)CCCN1c2ccccc2Sc2ccccc21,inactive: -2.84% and inactive: -13.5%
18,O=C(CSc1oc(-c2ccco2)nc1S(=O)(=O)c1ccccc1)c1ccc(Cl)cc1,inactive: -11.2%
19,CCOc1cccc(C(=O)Nc2ccc(NC(=O)c3ccc(Br)cc3)cc2)c1,inactive: 1.07%
20,CCOC(=O)c1ccc(NC(=O)CC2C(=O)N(c3ccccc3)C(=O)N2C2CCCCC2)cc1 (stereo not drawn),inactive: -17.4%
21,CCOC(=O)c1oc2ccc(S(=O)(=O)n3nc(-c4cc(OCC)c(OCC)c(OCC)c4)cc3N)cc2c1C,inactive: -6.9%
22,CCN(c1ccc(C)cc1C)S(=O)(=O)c1nnc(NC(=O)c2ccccc2OC)s1,inactive: 15.7%
23,CC(C)CCNC(=O)CSc1nc2ccccc2nc1Cc1ccc(Cl)cc1,inactive: -4.46%
24,CN(C)c1ccc(C(=O)NCc2ccc3c(c2)CCN3C(=O)c2ccccc2)cc1,inactive: -34.4%
25,COc1ccccc1CNC(=O)CS(=O)(=O)Cc1nc(-c2ccccc2C)oc1C,inactive: 15.1%
26,CSc1ccc(CNC(=O)Cn2ccc3cc(S(=O)(=O)N4CCCC4)ccc32)cc1,inactive: 20.3%
27,Cc1cc(C)cc(NC(=O)CCN2C(=O)c3ccccc3Sc3ncccc32)c1,inactive: -9.43%

row,Structure (SMILES),activation
1,CC1CCN(c2nc(-c3ccc(Br)cc3)nc3ccccc23)CC1,inactive: -13.6%
2,CN(C)c1ccc(CNC(=O)c2sc3ncccc3c2-n2cccc2)cc1,inactive: -6.16%
3,CCN(c1ncnc2c1cnn2-c1cccc(Cl)c1)C1CCCCC1,inactive: -3.86%
4,Cc1ccc(-c2cc(C(F)(F)F)c(C#N)c(SCC(=O)Nc3ccccc3F)n2)cc1,inactive: -13.2%
5,COc1cc(Cl)c(NS(=O)(=O)c2ccc(-c3coc(C)n3)cc2)c(OC)c1,active: 82.6%
6,CC1CCCCN1CCCNC(=O)Cn1ncc2c3ccccc3n(Cc3ccccc3F)c2c1=O (stereo not drawn),inactive: 7.62%
7,COc1ccc(C2C(=O)N(C3CCCCC3)CC(=O)N2C2CCCCC2)cc1 (stereo not drawn),inactive: 0.311%
8,COc1cccc(CNC(=O)CN2C(=O)CSc3ccc(S(=O)(=O)N4CCCC4)cc32)c1,inactive: -16.4%
9,Cc1cc(C)c(NC(=O)CN2C(=O)CCSc3ccc(S(=O)(=O)N4CCCC4)cc32)c(C)c1,inactive: -5.47%
10,COCCn1c(C)cc(O)c(C(c2ccc(Cl)cc2)N2CCCCC2)c1=O (stereo not drawn),inactive: -11%
11,CCN(Cc1ccccc1)C(=O)C(CC(C)C)NS(=O)(=O)c1ccc2c(c1)CCN2C(C)=O (stereo not drawn),inactive: -3.31%
12,O=C(c1ccccc1)N1CCCCC1CCN1CCCCC1 (stereo not drawn),inactive: -2.44%
13,O=C(Nc1ccc2nc(SCC(=O)N3CCOCC3)sc2c1)c1ccc(Cl)cc1,inactive: 34%
14,Cc1ccc(-n2c(=O)c3ccccc3n(CC(=O)Nc3cccc(C(F)(F)F)c3)c2=O)cc1,inactive: -7.64%
15,Cc1cccc(N2CCN(C(=O)c3nn(C)c4c3CS(=O)(=O)c3ccccc3-4)CC2C)c1 (stereo not drawn),inactive: 4.51%
16,O=C(Cn1c(=O)n(-c2ccccc2)c(=O)c2sc3ccccc3c21)NC1CCCC1,inactive: -5.1%
17,N#C/C(=C\c1ccc(Cl)cc1)c1nc(-c2cc3c(ccc4ccccc43)oc2=O)cs1,inactive: 10.9%
18,O=C(CN1C(=O)CC(c2ccc(F)cc2)=Nc2ccccc21)NCc1ccccc1Cl,inactive: -17.2%
19,CN(C1CCCCC1)S(=O)(=O)c1ccc2c(c1)c(=O)c(C(=O)NCc1ccc(Cl)cc1)cn2C,inactive: 1.6%
20,COc1cccc(N2CCN(c3ncnc4onc(-c5ccc(Cl)cc5)c34)CC2)c1,inactive: -22.8%
21,Cc1ccc(C)c(Nc2nn3c(=O)c4ccc(C(=O)NCc5cccs5)cc4nc3s2)c1,inactive: 10.1%
22,Cc1cccc(NC(=O)c2c(N)sc3c2CCC(C)C3)c1 (stereo not drawn),inactive: 6.05%
23,COc1ccc(-c2cccc(NS(=O)(=O)c3cc(C)ccc3OC)c2)nn1,inactive: 4.19%
24,CCc1cccc(C)c1NS(=O)(=O)c1ccc(-c2cc(C)no2)s1,inactive: -6.22%
25,COc1ccc(C(=O)NCC(c2ccco2)S(=O)(=O)c2cccs2)cc1 (stereo not drawn),inactive: -3.78%
26,N#Cc1nc(/C=C/c2ccc(F)cc2)oc1NC1CCCCC1,inactive: -7.51%
